ChEMBL document CHEMBL2203085, “Modification of a promiscuous inhibitor shifts the inhibition from γ-secretase to FLT-3” (Bioorg Med Chem Lett, 2012)

How the values were obtained:
[1] = biological target: Ephrin type-A receptor 3 (Homo sapiens) (UniProt P29320); assay: Inhibition of human recombinant EPHA3 using Ulight-TK peptide as substrate assessed as residual activity at 1 uM after 60 mins relative to staurosporine
Method in brief: (§1)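 Part of a 50-kinase panel screen at a single concentration. Residual activity is given as percent of control specific activity, calculated as (measured specific activity/control specific activity) × 100, with staurosporine as the control. The kinase-specific details are in the supplementary data.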

[2] = organism: Danio rerio; assay: Toxicity against zebra fish embryo assessed as abnormalities up to 20 uM incubated from 4 hrs to 48 hrs post fertilization by microscopic analysis; type: ADME, organism-based; details: zebrafish, in vivo
Method in brief: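 Zebrafish embryos were collected and kept in E2 medium at 28 °C. Compound was added at 4–5 hpf at 5 or 20 µM alongside untreated controls. Phenotypes were compared with controls at 48 hpf.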

[3] = biological target: High affinity nerve growth factor receptor (Homo sapiens) (UniProt P04629); assay: Inhibition of human recombinant TRKA expressed in insect cells using Ulight-Poly GAT[EAY(1:1:1)]n as substrate assessed as residual activity at 1 uM after 10 mins relative to staurosporine
Chain of UniProt P04629 (P04629 whole entry, looked up): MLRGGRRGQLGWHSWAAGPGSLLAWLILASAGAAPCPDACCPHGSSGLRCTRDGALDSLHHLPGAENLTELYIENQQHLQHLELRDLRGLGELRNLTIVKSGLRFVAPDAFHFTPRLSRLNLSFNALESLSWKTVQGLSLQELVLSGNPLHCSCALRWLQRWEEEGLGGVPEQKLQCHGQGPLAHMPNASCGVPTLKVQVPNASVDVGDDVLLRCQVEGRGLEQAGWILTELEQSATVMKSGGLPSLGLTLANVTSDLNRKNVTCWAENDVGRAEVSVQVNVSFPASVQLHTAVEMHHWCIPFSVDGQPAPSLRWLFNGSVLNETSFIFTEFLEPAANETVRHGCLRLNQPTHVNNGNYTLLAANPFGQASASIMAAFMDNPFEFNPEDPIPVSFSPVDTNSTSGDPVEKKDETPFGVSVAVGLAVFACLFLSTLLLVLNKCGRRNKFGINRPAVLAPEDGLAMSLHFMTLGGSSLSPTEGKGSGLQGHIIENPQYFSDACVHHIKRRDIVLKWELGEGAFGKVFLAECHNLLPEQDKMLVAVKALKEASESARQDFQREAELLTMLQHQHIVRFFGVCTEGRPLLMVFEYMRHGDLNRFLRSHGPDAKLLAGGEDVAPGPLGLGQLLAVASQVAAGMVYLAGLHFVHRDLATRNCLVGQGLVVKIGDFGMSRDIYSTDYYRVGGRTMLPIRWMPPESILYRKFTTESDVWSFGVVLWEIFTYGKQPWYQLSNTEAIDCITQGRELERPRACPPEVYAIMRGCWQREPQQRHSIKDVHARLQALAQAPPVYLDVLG
Method in brief: (§2)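 Single-point kinase-panel screen at 1 µM test concentration. Specific activity was measured and expressed as percent of the staurosporine control, calculated as (measured specific activity / control specific activity) × 100.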

[4] = biological target: Serine/threonine-protein kinase TAO2 (Homo sapiens) (UniProt Q9UL54); assay: Inhibition of human recombinant TAOK2 using Ulight-FLGFTYVAP as substrate assessed as residual activity at 1 uM after 60 mins relative to staurosporine; method in brief: as §2
[5] = biological target: Proto-oncogene tyrosine-protein kinase Src (Homo sapiens) (UniProt P12931); assay: Inhibition of human recombinant SRC expressed in insect cells using Ulight-Poly GAT[EAY(1:1:1)]n as substrate assessed as residual activity at 1 uM after 10 mins relative to staurosporine; method in brief: as §2
[6] = biological target: Serine/threonine-protein kinase SIK1 (Homo sapiens) (UniProt P57059); assay: Inhibition of human recombinant SIK expressed in Sf21 cells using CKRREILSRRPSYRK as substrate assessed as residual activity at 1 uM after 90 mins relative to staurosporine; method in brief: as §1
[7] = biological target: Rho-associated protein kinase 1 (Homo sapiens) (UniProt Q13464); assay: Inhibition of human recombinant ROCK1 using Ulight-RRRSLLE as substrate assessed as residual activity at 1 uM after 30 mins relative to staurosporine; method in brief: as §1
[8] = biological target: Serine/threonine-protein kinase pim-2 (Homo sapiens) (UniProt Q9P1W9); assay: Inhibition of human recombinant PIM2 expressed in insect cells using CKRREILSRRPSYRK as substrate assessed as residual activity at 1 uM after 60 mins relative to staurosporine; method in brief: as §1
Chain of UniProt Q9P1W9 (Q9P1W9 whole entry, looked up): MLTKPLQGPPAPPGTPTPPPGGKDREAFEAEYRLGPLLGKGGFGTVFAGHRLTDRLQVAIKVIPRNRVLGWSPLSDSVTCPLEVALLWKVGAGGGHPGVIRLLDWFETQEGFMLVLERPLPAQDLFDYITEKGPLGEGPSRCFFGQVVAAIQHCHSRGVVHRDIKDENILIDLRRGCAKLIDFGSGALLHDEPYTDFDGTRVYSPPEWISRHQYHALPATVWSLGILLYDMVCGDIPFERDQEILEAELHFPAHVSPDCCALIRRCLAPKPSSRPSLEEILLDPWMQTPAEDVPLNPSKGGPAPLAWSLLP

[9] = biological target: Serine/threonine-protein kinase PAK 2 (Homo sapiens) (UniProt Q13177); assay: Inhibition of human recombinant PAK2 expressed in Sf9 cells using Ulight-RRRSLLE as substrate assessed as residual activity at 1 uM after 60 mins relative to staurosporine; method in brief: as §1
[10] = biological target: Mitogen-activated protein kinase 14 (Homo sapiens) (UniProt Q16539); assay: Inhibition of human recombinant p38alpha expressed in Escherichia coli using Ulight-CFFKNIVTPRTPPPSQGK-amide as substrate assessed as residual activity at 1 uM after 60 mins relative to staurosporine; method in brief: as §2
[11] = biological target: MAP kinase-interacting serine/threonine-protein kinase 2 (Homo sapiens) (UniProt Q9HBH9); assay: Inhibition of human recombinant MNK2 expressed in Sf21 cells using CKRREILSRRPSYRK as substrate assessed as residual activity at 1 uM after 90 mins relative to staurosporine; method in brief: as §1
[12] = biological target: MAP kinase-activated protein kinase 2 (Homo sapiens) (UniProt P49137); assay: Inhibition of human recombinant MAPKAP2 expressed in Escherichia coli using CKRREILSRRPSYRK as substrate assessed as residual activity at 1 uM after 15 mins relative to staurosporine; method in brief: as §1
Chain of UniProt P49137 (P49137 whole entry, looked up): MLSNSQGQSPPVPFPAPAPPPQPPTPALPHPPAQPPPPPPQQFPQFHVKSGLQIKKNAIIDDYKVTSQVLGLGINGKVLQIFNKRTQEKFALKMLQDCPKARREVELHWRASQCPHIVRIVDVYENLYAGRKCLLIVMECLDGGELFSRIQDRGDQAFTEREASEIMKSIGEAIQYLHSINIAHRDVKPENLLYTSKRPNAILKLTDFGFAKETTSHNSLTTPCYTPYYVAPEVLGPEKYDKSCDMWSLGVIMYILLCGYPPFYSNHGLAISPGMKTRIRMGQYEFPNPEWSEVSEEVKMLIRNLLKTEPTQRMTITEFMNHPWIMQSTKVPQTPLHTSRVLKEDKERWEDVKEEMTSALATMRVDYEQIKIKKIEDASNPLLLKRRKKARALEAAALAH

[13] = biological target: Tyrosine-protein kinase Lck (Homo sapiens) (UniProt P06239); assay: Inhibition of human recombinant LCK expressed in insect cells using Ulight-Poly GAT[EAY(1:1:1)]n as substrate assessed as residual activity at 1 uM after 30 mins relative to staurosporine; method in brief: as §1
Chain of UniProt P06239 (P06239 whole entry, looked up): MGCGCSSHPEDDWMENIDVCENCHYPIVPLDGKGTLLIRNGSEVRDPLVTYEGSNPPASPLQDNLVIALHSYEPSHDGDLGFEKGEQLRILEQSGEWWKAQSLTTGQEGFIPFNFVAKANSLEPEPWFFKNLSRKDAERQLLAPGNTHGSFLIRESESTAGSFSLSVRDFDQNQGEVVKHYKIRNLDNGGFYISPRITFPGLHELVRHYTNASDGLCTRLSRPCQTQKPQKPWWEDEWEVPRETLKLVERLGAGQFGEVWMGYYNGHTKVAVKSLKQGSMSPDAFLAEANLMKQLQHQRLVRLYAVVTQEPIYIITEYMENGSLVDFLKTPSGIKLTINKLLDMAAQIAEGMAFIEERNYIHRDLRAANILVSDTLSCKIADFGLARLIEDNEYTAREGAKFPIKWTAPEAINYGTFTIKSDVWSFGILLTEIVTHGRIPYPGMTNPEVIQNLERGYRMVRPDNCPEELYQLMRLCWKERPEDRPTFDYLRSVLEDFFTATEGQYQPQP

[14] = biological target: Vascular endothelial growth factor receptor 2 (Homo sapiens) (UniProt P35968); assay: Inhibition of human recombinant VEGFR2 expressed in sf9 cells using Ulight-CAGAGAIETDKEYYTVKD as substrate assessed as residual activity at 1 uM after 60 mins relative to staurosporine; method in brief: as §2
[15] = biological target: Mitogen-activated protein kinase 8 (Homo sapiens) (UniProt P45983); assay: Inhibition of human recombinant JNK1 expressed in Escherichia coli using Ulight-CFFKNIVTPRTPPPSQGK-amide as substrate assessed as residual activity at 1 uM after 60 mins relative to staurosporine; method in brief: as §1
[16] = biological target: Insulin receptor (Homo sapiens) (UniProt P06213); assay: Inhibition of human recombinant INSR using Ulight-Poly GAT[EAY(1:1:1)]n as substrate assessed as residual activity at 1 uM after 10 mins relative to staurosporine; method in brief: as §1
Chain of UniProt P06213 (P06213 whole entry): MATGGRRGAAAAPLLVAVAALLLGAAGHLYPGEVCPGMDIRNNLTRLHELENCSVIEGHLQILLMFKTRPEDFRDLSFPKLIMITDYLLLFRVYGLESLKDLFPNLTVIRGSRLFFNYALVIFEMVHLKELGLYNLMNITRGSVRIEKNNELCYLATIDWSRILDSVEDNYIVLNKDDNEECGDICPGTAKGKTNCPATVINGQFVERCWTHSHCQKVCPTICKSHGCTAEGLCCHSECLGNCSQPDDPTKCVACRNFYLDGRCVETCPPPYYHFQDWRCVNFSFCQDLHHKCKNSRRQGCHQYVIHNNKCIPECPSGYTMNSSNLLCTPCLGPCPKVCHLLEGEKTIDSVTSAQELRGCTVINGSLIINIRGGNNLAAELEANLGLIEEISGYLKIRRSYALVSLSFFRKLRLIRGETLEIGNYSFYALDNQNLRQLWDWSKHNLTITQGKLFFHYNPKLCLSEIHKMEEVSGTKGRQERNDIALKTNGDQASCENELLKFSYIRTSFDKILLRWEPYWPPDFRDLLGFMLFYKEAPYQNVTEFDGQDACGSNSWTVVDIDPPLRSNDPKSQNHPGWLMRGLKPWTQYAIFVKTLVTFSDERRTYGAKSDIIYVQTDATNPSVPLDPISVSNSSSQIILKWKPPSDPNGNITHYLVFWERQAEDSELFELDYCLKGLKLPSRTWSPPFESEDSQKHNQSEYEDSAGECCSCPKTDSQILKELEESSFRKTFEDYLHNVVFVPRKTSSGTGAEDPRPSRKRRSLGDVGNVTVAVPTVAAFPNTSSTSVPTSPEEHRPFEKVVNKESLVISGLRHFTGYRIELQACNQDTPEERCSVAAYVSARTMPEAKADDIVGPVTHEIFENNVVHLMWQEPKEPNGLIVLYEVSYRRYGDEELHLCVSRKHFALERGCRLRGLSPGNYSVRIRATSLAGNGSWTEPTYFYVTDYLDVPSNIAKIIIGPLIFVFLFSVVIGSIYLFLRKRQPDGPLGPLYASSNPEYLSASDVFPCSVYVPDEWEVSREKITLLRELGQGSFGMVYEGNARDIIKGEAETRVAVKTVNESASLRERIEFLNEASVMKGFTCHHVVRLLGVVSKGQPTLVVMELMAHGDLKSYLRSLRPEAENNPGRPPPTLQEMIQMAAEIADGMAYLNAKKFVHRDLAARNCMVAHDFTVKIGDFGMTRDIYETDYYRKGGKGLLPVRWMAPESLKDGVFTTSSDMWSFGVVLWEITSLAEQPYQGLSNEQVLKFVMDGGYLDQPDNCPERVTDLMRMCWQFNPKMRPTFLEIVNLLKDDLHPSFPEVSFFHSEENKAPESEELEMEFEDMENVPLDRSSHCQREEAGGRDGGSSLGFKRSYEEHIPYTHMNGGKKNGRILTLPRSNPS

[17] = biological target: Interleukin-1 receptor-associated kinase 4 (Homo sapiens) (UniProt Q9NWZ3); assay: Inhibition of human recombinant IRAK4 expressed in insect cells using Ulight-FLGFTYVAP as substrate assessed as residual activity at 1 uM after 90 mins relative to staurosporine; method in brief: as §1
[18] = biological target: Mitogen-activated protein kinase kinase kinase kinase 4 (Homo sapiens) (UniProt O95819); assay: Inhibition of human recombinant HGK using Ulight-CFFKNIVTPRTPPPSQGK-amide as substrate assessed as residual activity at 1 uM after 90 mins relative to staurosporine; method in brief: as §1
[19] = biological target: Fibroblast growth factor receptor 1 (Homo sapiens) (UniProt P11362); assay: Inhibition of human recombinant FGFR1 using Ulight-CAGAGAIETDKEYYTVKD as substrate assessed as residual activity at 1 uM after 60 mins relative to staurosporine; method in brief: as §1
[20] = biological target: Ephrin type-A receptor 2 (Homo sapiens) (UniProt P29317); assay: Inhibition of human recombinant EPHA2 using Ulight-TK peptide as substrate assessed as residual activity at 1 uM after 30 mins relative to staurosporine; method in brief: as §1
[21] = biological target: Serine/threonine-protein kinase Chk2 (Homo sapiens) (UniProt O96017); assay: Inhibition of human recombinant CHK2 expressed in insect cells using CKRREILSRRPSYRK as substrate assessed as residual activity at 1 uM after 15 mins relative to staurosporine; method in brief: as §1
[22] = biological target: Cyclin-dependent kinase 1/cyclin B1 (Homo sapiens) (UniProt P06493+P14635); assay: Inhibition of human recombinant CDK1/cyclin B expressed in insect cells using Ulight-CFFKNIVTPRTPPPSQGK-amide as substrate assessed as residual activity at 1 uM after 15 mins relative to staurosporine; method in brief: as §1
[23] = biological target: Calcium/calmodulin-dependent protein kinase type II subunit alpha (Homo sapiens) (UniProt Q9UQM7); assay: Inhibition of human recombinant CAMK2A using Ulight-CGSGSGRPRTSSFAEG as substrate assessed as residual activity at 1 uM after 30 mins relative to staurosporine; method in brief: as §1
Chain of UniProt Q9UQM7 (Q9UQM7 whole entry): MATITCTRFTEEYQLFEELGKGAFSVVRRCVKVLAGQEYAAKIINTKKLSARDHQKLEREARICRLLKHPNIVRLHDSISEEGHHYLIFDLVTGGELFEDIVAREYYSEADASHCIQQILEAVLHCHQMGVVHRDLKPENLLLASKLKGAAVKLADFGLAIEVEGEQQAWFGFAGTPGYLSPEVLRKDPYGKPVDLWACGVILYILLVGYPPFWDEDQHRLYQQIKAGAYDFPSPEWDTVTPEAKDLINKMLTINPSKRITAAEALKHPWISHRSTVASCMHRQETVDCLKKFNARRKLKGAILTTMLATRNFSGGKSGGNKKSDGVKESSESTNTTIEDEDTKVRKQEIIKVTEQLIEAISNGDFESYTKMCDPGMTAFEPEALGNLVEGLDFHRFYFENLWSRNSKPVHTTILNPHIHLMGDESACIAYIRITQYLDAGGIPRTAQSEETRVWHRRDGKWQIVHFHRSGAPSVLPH

[24] = biological target: Tyrosine-protein kinase ABL1 (Homo sapiens) (UniProt P00519); assay: Inhibition of human recombinant ABL expressed in insect cells using Ulight-TK peptide as substrate assessed as residual activity at 1 uM after 60 mins relative to staurosporine; method in brief: as §1
Chain of UniProt P00519 (P00519 whole entry): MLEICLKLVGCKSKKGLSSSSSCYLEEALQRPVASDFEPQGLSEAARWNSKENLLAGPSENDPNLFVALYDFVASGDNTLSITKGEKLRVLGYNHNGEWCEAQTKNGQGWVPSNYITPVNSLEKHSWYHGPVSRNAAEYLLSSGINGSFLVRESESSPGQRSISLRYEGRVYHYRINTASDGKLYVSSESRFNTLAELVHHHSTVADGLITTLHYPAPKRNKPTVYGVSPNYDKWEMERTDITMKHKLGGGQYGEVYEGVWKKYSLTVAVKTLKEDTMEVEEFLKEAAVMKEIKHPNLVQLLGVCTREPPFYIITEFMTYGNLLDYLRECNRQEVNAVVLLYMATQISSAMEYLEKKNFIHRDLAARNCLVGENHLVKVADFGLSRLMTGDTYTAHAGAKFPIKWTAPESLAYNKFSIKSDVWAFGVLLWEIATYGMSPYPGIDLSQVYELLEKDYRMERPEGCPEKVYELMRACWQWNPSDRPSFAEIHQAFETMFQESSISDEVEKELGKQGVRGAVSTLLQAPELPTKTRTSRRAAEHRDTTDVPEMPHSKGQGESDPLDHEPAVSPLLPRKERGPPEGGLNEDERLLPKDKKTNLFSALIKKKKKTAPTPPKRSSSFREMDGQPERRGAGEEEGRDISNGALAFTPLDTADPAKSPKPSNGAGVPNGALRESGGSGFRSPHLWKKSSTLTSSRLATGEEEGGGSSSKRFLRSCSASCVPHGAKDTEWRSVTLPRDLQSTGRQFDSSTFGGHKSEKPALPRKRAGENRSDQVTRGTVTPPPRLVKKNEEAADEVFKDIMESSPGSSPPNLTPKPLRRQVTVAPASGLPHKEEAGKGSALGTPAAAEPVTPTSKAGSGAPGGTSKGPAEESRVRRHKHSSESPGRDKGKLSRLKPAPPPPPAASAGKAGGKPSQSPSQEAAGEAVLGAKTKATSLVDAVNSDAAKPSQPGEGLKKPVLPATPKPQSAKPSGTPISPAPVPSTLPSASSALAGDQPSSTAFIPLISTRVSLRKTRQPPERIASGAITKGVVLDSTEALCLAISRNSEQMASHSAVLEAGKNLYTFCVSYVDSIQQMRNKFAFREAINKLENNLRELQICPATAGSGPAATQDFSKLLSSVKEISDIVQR

[25] = system: H4; assay: Cytotoxicity against human H4 cells at 40 uM; type: cell-based; details: h4, 40 µM
Method in brief: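 H4 APP#9 cells were used for cell-based toxicity testing, and toxicity was scored as yes or no at each concentration tested.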

[26] = biological target: Receptor-type tyrosine-protein kinase FLT3 (Homo sapiens, UniProt P36888); assay: Inhibition of human recombinant FLT3 expressed in insect cells using Ulight-CAGAGAIETDKEYYTVKD as substrate after 90 mins by LANCE method

SMILES: CCN(CC)CCOc1ccc(/C=C2\C(=O)Nc3ccc(Cl)cc32)cc1
- Activity [1]: 101%
- Activity [2]: Non-toxic
- Activity [3]: 87%
- Activity [4]: 95.1%
- Activity [5]: 101%
- Activity [6]: 119%
- Activity [7]: 102%
- Activity [8]: 94.7%
- Activity [9]: 104%
- Activity [10]: 99.4%
- Activity [11]: 107%
- Activity [12]: 95.3%
- Activity [13]: 104%
- Activity [14]: 88.4%
- Activity [15]: 96.4%
- Activity [16]: 113%
- Activity [17]: 91.8%
- Activity [18]: 27.8%
- Activity [19]: 98.2%
- Activity [20]: 101%
- Activity [21]: 94%
- Activity [22]: 106%
- Activity [23]: 103%
- Activity [24]: 95.4%
- Activity [25]: Toxic
- IC50 [26]: 4.1 nM
